# Assay results taken from PMC4336329 (PLoS ONE, 2015).
# Out of some 310,000 compounds screened, about 14,000 (4.5%) showed an effect of 50% or more. Effects have a minus sign here. Some of the results follow.
# Target: human ether-à-go-go-related gene (hERG) potassium channel (human, UniProt Q12809)
# Test: primary screen, population patch clamp on CHO cells stably expressing hERG
# 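Note: peak tail current of the secondary pulse compared with the same well before compound.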
# human ether-à-go-go-related gene (hERG) potassium channel, sequence (Q12809 whole entry, looked up): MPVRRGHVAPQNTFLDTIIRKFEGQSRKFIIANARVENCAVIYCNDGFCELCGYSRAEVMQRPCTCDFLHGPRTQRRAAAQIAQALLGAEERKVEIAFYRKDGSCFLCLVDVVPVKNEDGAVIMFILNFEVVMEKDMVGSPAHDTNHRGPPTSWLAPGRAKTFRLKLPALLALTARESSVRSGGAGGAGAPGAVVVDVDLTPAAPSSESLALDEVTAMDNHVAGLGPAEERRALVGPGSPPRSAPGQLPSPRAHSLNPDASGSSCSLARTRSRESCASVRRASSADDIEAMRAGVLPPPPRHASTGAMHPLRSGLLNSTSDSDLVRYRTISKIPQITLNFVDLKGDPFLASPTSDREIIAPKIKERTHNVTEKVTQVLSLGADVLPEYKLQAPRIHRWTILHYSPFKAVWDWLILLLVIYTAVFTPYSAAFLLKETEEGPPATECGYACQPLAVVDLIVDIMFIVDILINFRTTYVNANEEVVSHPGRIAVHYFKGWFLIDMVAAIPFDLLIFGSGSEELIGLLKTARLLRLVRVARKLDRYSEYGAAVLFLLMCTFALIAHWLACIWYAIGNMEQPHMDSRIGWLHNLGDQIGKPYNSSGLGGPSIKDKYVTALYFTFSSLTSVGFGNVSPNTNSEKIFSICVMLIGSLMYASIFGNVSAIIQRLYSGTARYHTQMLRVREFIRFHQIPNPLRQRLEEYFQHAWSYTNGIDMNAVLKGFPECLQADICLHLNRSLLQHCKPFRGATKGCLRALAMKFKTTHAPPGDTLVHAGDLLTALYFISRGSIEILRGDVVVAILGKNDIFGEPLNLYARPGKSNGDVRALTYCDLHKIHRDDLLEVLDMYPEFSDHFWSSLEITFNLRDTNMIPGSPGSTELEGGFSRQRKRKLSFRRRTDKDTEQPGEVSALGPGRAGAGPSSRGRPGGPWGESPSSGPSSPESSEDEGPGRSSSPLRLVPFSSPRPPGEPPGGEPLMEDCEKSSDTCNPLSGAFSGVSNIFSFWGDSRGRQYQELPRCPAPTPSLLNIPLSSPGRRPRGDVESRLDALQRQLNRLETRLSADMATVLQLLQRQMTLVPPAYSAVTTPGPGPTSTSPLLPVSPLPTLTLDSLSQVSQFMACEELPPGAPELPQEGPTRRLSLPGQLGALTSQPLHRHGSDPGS
row,SMILES,"hERG current change (%, negative = inhibition) at 10uM"
1,Cc1cc(C)c2[nH]c(=S)cc(C)c2c1,15.9%
2,CN1CCN(C(=S)NC(=O)/C=C/c2ccccc2)CC1,-17.3%
3,CCNC(=O)COC(=O)CNC(=O)c1cc(Cl)cc([N+](=O)[O-])c1,-2.83%
4,O=C(NC1CCCC1)C(c1ccccc1)N(Cc1ccccc1)C(=O)c1csnn1 (stereo not drawn),-19.6%
5,CCN(CC)c1ccc(NC(=O)Cn2ncc3c(C)n(Cc4ccccc4F)c(C)c3c2=O)c(C)c1,7.08%
6,OCc1nc2ccc(Cl)cc2[nH]1,3.62%
7,Brc1cccc(-c2cnc3n2CCCCC3)c1.Cl,-48.4%
8,Cn1c(=O)oc2cc(S(=O)(=O)NCc3cccnc3)ccc21,13%
9,Cc1csc(NC(=O)[C@@H](NC(=O)c2ccccc2)C(C)C)n1,-2.37%
10,CC1(C)CC(=O)C(C(c2ccccc2F)C2C(=O)CC(C)(C)CC2=O)C(=O)C1,14.2%
11,O=C(Nc1ccc2c(c1)CCC2)c1cc(=O)[nH]c2ccccc12,2.1%
12,O=C(COC(=O)c1cc(Br)ccc1O)Nc1ccc2c(c1)OCO2,2.65%
13,N#Cc1ccc(NC(=O)CNc2cc(S(=O)(=O)N3CCOCC3)ccc2NCC2CCCO2)cc1 (stereo not drawn),-70%
14,CN(CC(=O)NCc1ccncc1)S(=O)(=O)c1ccc(Cl)cc1,-12.2%
15,O=C(NCc1ccccc1)Nc1cccc2ccccc12,16.7%
16,CC(=O)N1CC=CC1(CC(C)C)C(=O)NCc1cc(F)cc(C(F)(F)F)c1 (stereo not drawn),2.67%
17,CCCCNC(=O)Nc1ncn[nH]1,-27.7%
18,CCOC(=O)c1c(C)[nH]c(C(=O)N2CCCC(C(=O)c3ccccc3OC)C2)c1C (stereo not drawn),-4.49%
19,Cc1nc(-c2cccc(NC(=O)C(C)Oc3ccccc3)c2)cs1 (stereo not drawn),-13.7%
20,O=C(c1ccc(NS(=O)(=O)c2ccc(F)cc2)cc1)N1CCCCCC1,-30.2%
21,O=C(O)CCC(=O)N1CCN(c2ccc(C(=O)c3ccc(F)cc3)cc2)CC1,0.927%
22,COc1ccc(S(=O)(=O)N2CCCCC2)cc1C(=O)Nc1cc(C)on1,-12.5%

row,SMILES,"hERG current change (%, negative = inhibition) at 10uM"
1,Cc1ccc(S(=O)(=O)N2CCOCC2)cc1NS(=O)(=O)c1ccc(F)c(F)c1,-4.13%
2,O=C(c1ccc(Sc2ccccc2)c([N+](=O)[O-])c1)N1CCOCC1,-1.42%
3,Cc1cc(C)c(OCCCCCn2ccnc2)c(C)c1,-24.9%
4,COC(=O)CCCC[C@@H]1SC[C@@H](NC(=O)OC)[C@@H]1NC(=O)OC,5.49%
5,CCc1cccc(C)c1NC(=S)N(CCCN1CCOCC1)Cc1cccnc1,-6.65%
6,Cc1ccc(OCC(=O)N2CCN(c3nnc(-c4ccccc4)c4ccccc34)CC2)cc1,-61.5%
7,COC(=O)c1ccc(C(C(=O)NC2CCCCC2)N(CCN2CCOCC2)C(=O)Cc2cccs2)cc1 (stereo not drawn),-15.3%
8,CCn1c2ccccc2c2cc(CN3CCN(S(=O)(=O)Cc4ccccc4)CC3)ccc21.O=C(O)C(=O)O,21.3%
9,CCc1ccc(-n2c(=S)sc3c(=O)n(-c4ccccc4C)c(SCC(=O)O)nc32)cc1,-0.575%
10,CC(C)CNS(=O)(=O)c1ccc(OCC(=O)Nc2ccc3c(c2)OCCO3)cc1,12.7%
11,CN(C)/C=C/C(=O)c1ncc(C(F)(F)F)cc1Cl,8.95%
12,CC(O)C(NS(=O)(=O)c1ccc(Cl)cc1)C(=O)OCC(=O)N1CCN(c2ccccc2)CC1 (stereo not drawn),-25.1%
13,CC(CC(=O)O)CC(=O)Nc1nncs1 (stereo not drawn),-1.38%
14,COC(=O)c1cc(Cl)c(NC(=O)/C=C/c2ccc(OC)cc2)cc1OC,8.16%
15,Cc1cc(OCC(=O)OCC(=O)Nc2ccc(Cl)cn2)ccc1Cl,2.46%
16,O=[N+]([O-])c1cccc(S(=O)(=O)N2CCCCC2)c1,8.54%
17,CS(=O)(=O)O.c1cnc(N2CCN(Cc3ccc4c(c3)OCO4)CC2)nc1,3.93%
18,CCc1cc(C(=O)NNC(=S)Nc2ccccc2C)cs1,-4.76%
19,Cl.c1ccc2c(c1)oc1c(Nc3ccc4c(c3)OCCO4)ncnc12,5.01%
20,O=C(Cc1ccccc1)NCC(=O)N/N=C/c1cccs1,14.9%
21,O=C(CSc1nnc(NC(=O)c2cccc(F)c2)s1)NCc1ccco1,15.6%
22,O=C(c1ccco1)N1CCN(C(=O)c2cccc3c2C(=O)N(C2CCCCC2)C3)CC1,2.99%

row,SMILES,"hERG current change (%, negative = inhibition) at 10uM"
1,Cc1ccc(NC(=S)NC(=O)/C=C/c2ccc(Cl)cc2)cc1,13%
2,Cc1ccc(C(=O)N/N=C/c2ccc3c(c2)OCO3)o1,1.02%
3,CN(C)N(C)C(=O)C(O)(c1ccccc1)c1ccccc1,-2.9%
4,COc1ccc(S(=O)(=O)Nc2ccccc2C(=O)N2CCOCC2)cc1OC,5.3%
5,CC(C)C(=O)NC(=S)Nc1ccccn1,9.1%
6,COc1ccc2c(c1)O[C@H](c1ccc3c(c1)OCO3)[C@@H](OC(=O)N[C@H]1CCCc3ccccc31)C2=O,7.06%
7,Nc1ncnc(Nc2cc(Cl)cc(Cl)c2)c1[N+](=O)[O-],16%
8,CC(C)c1ccc(Nc2ncccc2C#N)cc1,-5.45%
9,O=C(NCC(=O)N1CCN(c2ncccn2)CC1)c1cccs1,-7.28%
10,CCOc1ccc(Br)cc1S(=O)(=O)NC(=O)c1ccccc1,18.3%
11,Cc1ccc(CSCCNS(C)(=O)=O)cc1,13.4%
12,Cc1cc(C)c[n+](CC(=O)c2ccc(NC(=O)c3ccccc3)cc2)c1.[Br-],20.7%
13,COc1ccc(OC)c(/C=N/NC(=O)c2c(C)nc3ccc(C)cn23)c1,10.4%
14,CC(=O)c1c(-c2ccccc2)c2cc(Cl)ccc2n(C)c1=O,-10.6%
15,Cc1noc(/C=C/c2cccnc2)c1[N+](=O)[O-],3.41%
16,CCCN1C(=O)c2ccccc2NC1c1ccc(OC)cc1O (stereo not drawn),-10.3%
17,CCN(CC)C(=O)C1CCN(S(=O)(=O)c2ccc3c(c2)CCCN3C(=O)C2CCC2)CC1,5.02%
18,Cc1cc(NC(=O)CCCC(=O)OCC(F)(F)C(F)F)cc(C)c1C(=O)O,20.1%
19,CCC(C)(C)C1CCc2[nH]nc(C(=O)NN)c2C1 (stereo not drawn),14.7%
20,Cc1cc(C(=O)OCC(=O)Nc2cccc(S(=O)(=O)N3CCOCC3)c2)c(C)o1,-19.6%
21,COc1cccc(-c2nn(-c3ccccc3)cc2/C=C(/NC(=O)c2ccccc2)C(=O)O)c1,24.1%
22,Cc1cccc2nc(COc3ccc(Cl)c4cccnc34)cn12,-16.7%

row,SMILES,"hERG current change (%, negative = inhibition) at 10uM"
1,O=C(Nc1ccc(S(=O)(=O)N2CCOCC2)cc1)c1ccc(CN2CCc3ccccc3C2)cc1,3.89%
2,CC(C)c1cc(C(=O)Nc2sc3c(c2C#N)CCC3)no1,7.49%
3,O=C(Nc1ccc(S(=O)(=O)N2CCOCC2)cc1)c1cc(S(=O)(=O)N2CCOCC2)ccc1Cl,17.4%
4,Cc1ccc(C(C(=O)Nc2ccc(C(C)C)cc2)N(C)C(=O)c2ccc(=O)[nH]c2)cc1 (stereo not drawn),12.6%
5,NC1=C([N+](=O)[O-])C(c2ccc(F)cc2)C2=C(CCCC2=O)O1 (stereo not drawn),8.77%
6,CC(=O)Nc1cccc2c1Cc1ccccc1-2,10.8%
7,c1ccc(CN2CCC(Nc3nc(-c4cccnc4)nc4ccccc34)CC2)cc1,-80.5%
8,Cc1cccn2c(=O)c3cc(C(N)=S)c(=N)n(CCCN4CCOCC4)c3nc12,-87.6%
9,COc1cc(C2C(S(=O)(=O)c3ccccc3)CON2C)ccc1OCc1ccc(F)cc1 (stereo not drawn),6.66%
10,C/C(=N\NC(=O)c1c(C)nc2ccccn12)c1ccc(O)cc1O,7.77%
11,CCCCNC(=O)Oc1ccc(C(=O)N2c3ccccc3NC(=O)C2C)cc1 (stereo not drawn),0.0121%
12,CC1=C(C(=O)OCC2CCCCC2)C(c2cccc(O)c2)NC(=O)N1 (stereo not drawn),-9.54%
13,Oc1ccccc1-n1c(-c2ccccc2)ccc1-c1ccccc1,11.8%
14,O=C(Nc1cccc2c1C(=O)NC2=O)c1ccc(N2C(=O)CCC2=O)cc1,7.66%
15,Cc1ccccc1NC(=O)c1c([N+](=O)[O-])c(C(C)(C)C)nn1C,-12.2%
16,Cc1ccc(N2C(=O)N(CC(=O)NCc3ccc(Cl)cc3)C(=O)C2C)cc1 (stereo not drawn),-21.3%
17,CC1CCCN(Cc2nc3c(c(=O)n(C)c(=O)n3C)n2CC(N)=O)C1 (stereo not drawn),5.82%
18,CS(=O)(=O)N1CCN(C(=O)CSc2ccccc2)CC1,14%
19,Cc1cc(C)cc(NC(=O)CN2CCN(c3ccccn3)CC2)c1,-24.5%
20,CN(C)S(=O)(=O)c1cccc(C(=O)OCC(=O)N2CCCC2=O)c1,20.9%
21,Cc1ccccc1NS(=O)(=O)c1ccc(C(=O)NCC(c2ccccc2)N(C)C)cc1 (stereo not drawn),4.97%
